# Measured values taken from the supplement of paper PMC3334620.
# Whole data set: some 33,000 sequences, median “E-score (-0.5 to 0.5)” near -0.013, cut for the highest 2% near 0.3. The list shows a part of the results.
# Biological target: T1, Msn1 (UniProt P22148)
# T1 sequence: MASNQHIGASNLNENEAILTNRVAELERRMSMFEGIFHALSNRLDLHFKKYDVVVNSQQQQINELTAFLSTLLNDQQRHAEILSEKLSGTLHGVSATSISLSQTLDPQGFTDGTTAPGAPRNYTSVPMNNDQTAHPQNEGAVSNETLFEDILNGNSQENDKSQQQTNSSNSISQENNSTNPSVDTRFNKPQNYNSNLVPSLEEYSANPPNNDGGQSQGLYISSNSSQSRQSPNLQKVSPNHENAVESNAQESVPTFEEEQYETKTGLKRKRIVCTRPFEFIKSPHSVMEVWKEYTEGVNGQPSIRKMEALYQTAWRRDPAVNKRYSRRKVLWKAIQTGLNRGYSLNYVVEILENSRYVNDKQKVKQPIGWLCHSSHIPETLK
# Assay: PBM E-score (8-mer binding enrichment) (E-score (-0.5 to 0.5)); higher = stronger / more preferred TF binding; most listed sequences are background and not binding sites
# Conditions: protein concentration: 200 nM; construct: GST-full length
# Outline: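 GST-tagged yeast TFs (full-length or DNA-binding domain) were made by PURExpress in vitro transcription/translation and applied at about 100-200 nM to universal all-10-mer Agilent arrays. The arrays were made double-stranded by primer extension, on fresh or once-stripped slides. Bound protein was detected with fluorescent anti-GST, and scans were normalised with masliner. Each ungapped eight-base word, pooled with its reverse complement, received an E-score (modified Wilcoxon-Mann-Whitney statistic) from the Universal PBM Analysis Suite.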
row,Sequence,PBM E-score
1,GCAGAAAA,0.133
2,CGATATTA,0.249
3,ACCCATGG,-0.121
4,CTTTAGCA,-0.107
5,CGGAAGAC,0.0626
6,AAGTTGGA,0.067
7,ACATGTGG,0.228
8,GCCTTAAA,0.00041
9,CGCGGCCC,-0.0805
10,GAGCTGAC,0.0216
11,CTTTCATC,-0.145
12,TCATACGA,0.0671
13,ATAGCGGA,-0.0587
14,GGACAATA,0.464
15,CTAGCTTA,-0.0475
16,AGCGGAAC,-0.091
17,GACAGCGC,0.102
18,CCTTGCCG,-0.0395
19,ACTCGAGG,0.0141
20,AGAAAAAT,0.163
21,AGCAGTGG,-0.317
22,AGGTCTGA,0.0482

row,Sequence,PBM E-score
1,TTATCCAA,0.274
2,GACGGAAC,0.0588
3,AACGCCGA,0.148
4,CTGCGACC,-0.19
5,AGAATTGA,-0.0723
6,GTTAGTGA,-0.0121
7,AAAGTCGG,0.2
8,ACGTGTGC,-0.198
9,GTTGTATA,0.158
10,AAGTAGCT,-0.141
11,AAGAGGCA,-0.119
12,AATGATCC,-0.0123
13,AGAACAAG,0.151
14,CCAAGCAA,-0.0576
15,AGTTAGAG,-0.168
16,CTGTTTCC,-0.134
17,CACGTGCC,-0.0225
18,AAAAATGT,0.335
19,AGACTCTG,-0.103
20,CCTGTAAC,-0.106
21,GCCATAGC,-0.085
22,AAATCATC,-0.0175

row,Sequence,PBM E-score
1,AGGAAATC,0.0408
2,CCACAAAA,0.0569
3,ACGTTGCG,-0.0244
4,CCCAACAC,-0.252
5,CACTATGA,-0.111
6,ACTATAAT,0.0935
7,CTCAACAG,-0.0898
8,GCTAAATA,-0.0248
9,CTATCTTA,0.113
10,CAAATGTA,0.276
11,CCGGGTGC,-0.176
12,GGAGTTAC,-0.0427
13,CCGACCCG,0.0123
14,GACGATTA,0.22
15,GAAGACGC,-0.0962
16,CACCCCGG,-0.131
17,AATCACAC,0.0772
18,AGGTTACT,0.116
19,CAATATCA,0.19
20,GTCAGAAC,-0.0899
21,CAGCGGAA,0.0846
22,CACAATCG,0.00494

row,Sequence,PBM E-score
1,ACCCGGGA,0.0524
2,GCGGAGTA,-0.114
3,GAAACAGC,-0.0224
4,CCGCTAAC,-0.137
5,TAGGCGCA,-0.0236
6,CCATGGCA,0.0767
7,ACTCCGCA,-0.0892
8,ACAGAACA,0.0442
9,CCTGCTAC,0.017
10,ATCACAGC,0.053
11,AATGGGCC,-0.254
12,ACCGGTCG,0.0493
13,CTGTCATA,0.0936
14,CCCATCAC,-0.137
15,CGAGAAGC,0.0414
16,CCCTGATC,-0.269
17,AGGATTCG,0.00985
18,AGCTTCGA,-0.0376
19,CATGAGTA,-0.0485
20,ACTGTCTC,-0.00421
21,TCTGGACA,0.381
22,ACAGAGCG,0.0128

row,Sequence,PBM E-score
1,ATTGTGCG,-0.0742
2,ACTTAAGT,0.142
3,CGATTAAC,0.0885
4,CATTACCG,0.0274
5,GAGGGGAC,0.0225
6,ACAGACCG,-0.128
7,ACACATCA,-0.0471
8,CCCGTCTA,0.04
9,AGGTGACA,0.236
10,ACATAACA,0.182
11,AATGGCAG,-0.022
12,AGTCACCA,-0.154
13,ATATTTGA,0.115
14,ATGCCTTA,-0.264
15,AATCATGT,0.164
16,GGTCCTCA,-0.0923
17,GCCCATGA,-0.081
18,GCACGCCC,-0.0404
19,GAGTTTGC,-0.0259
20,CACTTAAG,0.0666
21,CTAAGCTC,-0.0292
